Reference: the supplement of paper PMC8728848
This is one part of the list.

Assays:
Experiment in all cases: glycan array binding signal (z-score within array); higher = stronger binding
Conditions in all cases: glycan notation: IUPAC condensed, linker removed
Neu5Ac(a2-3)GalNAc = target: Neu5Ac(a2-3)GalNAc
Outline: (§1)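 Negative Z-scores can be read as non-binding. The Z-score is calculated within each array and then averaged across arrays of one protein sequence at different concentrations or buffers and across linkers. Arrays, 3228 in all, were curated from the Consortium for Functional Glycomics database and kept only where the protein sequence was available.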

[1] = target: Neu5Ac(a2-3)GalNAc(b1-4)GlcNAc
Outline: as §1

[2] = target: Neu5Ac(a2-3)[GalNAc(b1-4)]Gal(b1-4)Glc
Outline: as §1

[3] = target: Neu5Ac(a2-3)[GalNAc(b1-4)]Gal(b1-4)GlcNAc
Outline: as §1

[4] = target: Neu5Ac(a2-3)[GalNAc(b1-4)]Gal(b1-4)GlcNAc(b1-3)GalNAc
Outline: as §1

[5] = target: Neu5Ac(a2-3)[Neu5Ac(a2-6)]GalNAc
Outline: as §1

Neu5Ac(a2-6)Gal = target: Neu5Ac(a2-6)Gal
Outline: as §1

[6] = target: Neu5Ac(a2-6)Gal(b1-3)GlcNAc(b1-3)[Gal(b1-4)GlcNAc(b1-6)]Gal(b1-4)Glc
Outline: as §1

Neu5Ac(a2-6)Gal(b1-4)Glc = target: Neu5Ac(a2-6)Gal(b1-4)Glc
Outline: as §1

[7] = target: Neu5Ac(a2-6)Gal(b1-4)GlcNAc
Outline: as §1

[8] = target: Neu5Ac(a2-6)Gal(b1-4)GlcNAc(b1-2)Man
Outline: as §1

[9] = target: Neu5Ac(a2-6)Gal(b1-4)GlcNAc(b1-2)Man(a1-3)Man(b1-4)GlcNAc(b1-4)GlcNAc
Outline: as §1

[10] = target: Neu5Ac(a2-6)Gal(b1-4)GlcNAc(b1-2)Man(a1-3)[Gal(b1-4)GlcNAc(b1-2)Man(a1-6)]Man(b1-4)GlcNAc(b1-4)GlcNAc
Outline: as §1

[11] = target: Neu5Ac(a2-6)Gal(b1-4)GlcNAc(b1-2)Man(a1-3)[GlcNAc(b1-4)][Neu5Ac(a2-6)Gal(b1-4)GlcNAc(b1-2)Man(a1-6)]Man(b1-4)GlcNAc(b1-4)GlcNAc
Outline: as §1

[12] = target: Neu5Ac(a2-6)Gal(b1-4)GlcNAc(b1-2)Man(a1-3)[Man(a1-6)]Man(b1-4)GlcNAc(b1-4)GlcNAc
Outline: as §1

[13] = target: Neu5Ac(a2-6)Gal(b1-4)GlcNAc(b1-2)Man(a1-3)[Neu5Ac(a2-3)Gal(b1-4)GlcNAc(b1-2)Man(a1-6)]Man(b1-4)GlcNAc(b1-4)GlcNAc
Outline: as §1

[14] = target: Neu5Ac(a2-6)Gal(b1-4)GlcNAc(b1-2)Man(a1-3)[Neu5Ac(a2-6)Gal(b1-4)GlcNAc(b1-2)Man(a1-6)]Man(b1-4)GlcNAc(b1-4)GlcNAc
Outline: as §1

[15] = target: Neu5Ac(a2-6)Gal(b1-4)GlcNAc(b1-2)Man(a1-3)[Neu5Ac(a2-6)Gal(b1-4)GlcNAc(b1-2)Man(a1-6)]Man(b1-4)GlcNAc(b1-4)[Fuc(a1-6)]GlcNAc
Outline: as §1

[16] = target: Neu5Ac(a2-6)Gal(b1-4)GlcNAc(b1-2)Man(a1-6)Man(b1-4)GlcNAc(b1-4)GlcNAc
Outline: as §1

[17] = target: Neu5Ac(a2-6)Gal(b1-4)GlcNAc(b1-2)Man(a1-6)[Gal(b1-4)GlcNAc(b1-2)Man(a1-3)]Man(b1-4)GlcNAc(b1-4)GlcNAc
Outline: as §1

[18] = target: Neu5Ac(a2-6)Gal(b1-4)GlcNAc(b1-2)Man(a1-6)[GlcNAc(b1-2)Man(a1-3)]Man(b1-4)GlcNAc(b1-4)GlcNAc
Outline: as §1

[19] = target: Neu5Ac(a2-6)Gal(b1-4)GlcNAc(b1-2)Man(a1-6)[Man(a1-3)]Man(b1-4)GlcNAc(b1-4)GlcNAc
Outline: as §1

[20] = target: Neu5Ac(a2-6)Gal(b1-4)GlcNAc(b1-2)[Neu5Ac(a2-6)Gal(b1-4)GlcNAc(b1-4)]Man(a1-3)[GlcNAc(b1-4)][Neu5Ac(a2-6)Gal(b1-4)GlcNAc(b1-2)[Neu5Ac(a2-6)Gal(b1-4)GlcNAc(b1-6)]Man(a1-6)]Man(b1-4)GlcNAc(b1-4)GlcNAc
Outline: as §1

[21] = target: Neu5Ac(a2-6)Gal(b1-4)GlcNAc(b1-2)[Neu5Ac(a2-6)Gal(b1-4)GlcNAc(b1-4)]Man(a1-3)[GlcNAc(b1-4)][Neu5Ac(a2-6)Gal(b1-4)GlcNAc(b1-4)Man(a1-6)]Man(b1-4)GlcNAc(b1-4)GlcNAc
Outline: as §1

[22] = target: Neu5Ac(a2-6)Gal(b1-4)GlcNAc(b1-2)[Neu5Ac(a2-6)Gal(b1-4)GlcNAc(b1-6)]Man(a1-6)[Neu5Ac(a2-6)Gal(b1-4)GlcNAc(b1-2)Man(a1-3)][GlcNAc(b1-4)]Man(b1-4)GlcNAc(b1-4)GlcNAc
Outline: as §1

[23] = target: Neu5Ac(a2-6)Gal(b1-4)GlcNAc(b1-3)Gal(b1-3)GlcNAc
Outline: as §1

[24] = target: Neu5Ac(a2-6)Gal(b1-4)GlcNAc(b1-3)Gal(b1-4)GlcNAc
Outline: as §1

[25] = target: Neu5Ac(a2-6)Gal(b1-4)GlcNAc(b1-3)Gal(b1-4)GlcNAc(b1-2)Man(a1-3)[Neu5Ac(a2-6)Gal(b1-4)GlcNAc(b1-3)Gal(b1-4)GlcNAc(b1-2)Man(a1-6)]GalNAc
Outline: as §1

[26] = target: Neu5Ac(a2-6)Gal(b1-4)GlcNAc(b1-3)Gal(b1-4)GlcNAc(b1-3)Gal(b1-4)GlcNAc
Outline: as §1

[27] = target: Neu5Ac(a2-6)Gal(b1-4)GlcNAc(b1-3)Gal(b1-4)GlcNAc(b1-3)Gal(b1-4)GlcNAc(b1-2)Man(a1-3)[Neu5Ac(a2-6)Gal(b1-4)GlcNAc(b1-3)Gal(b1-4)GlcNAc(b1-3)Gal(b1-4)GlcNAc(b1-2)Man(a1-6)]GalNAc
Outline: as §1

[28] = target: Neu5Ac(a2-6)Gal(b1-4)GlcNAc(b1-3)Gal(b1-4)GlcNAc(b1-3)GalNAc
Outline: as §1

[29] = target: Neu5Ac(a2-6)Gal(b1-4)GlcNAc(b1-3)Gal(b1-4)GlcNAc(b1-3)[Neu5Ac(a2-6)Gal(b1-4)GlcNAc(b1-3)Gal(b1-4)GlcNAc(b1-6)]GalNAc
Outline: as §1

[30] = target: Neu5Ac(a2-6)Gal(b1-4)GlcNAc(b1-3)Gal(b1-4)GlcNAc(b1-6)[Gal(b1-3)]GalNAc
Outline: as §1

[31] = target: Neu5Ac(a2-6)Gal(b1-4)GlcNAc(b1-3)Gal(b1-4)[Fuc(a1-3)]GlcNAc(b1-3)Gal(b1-4)[Fuc(a1-3)]GlcNAc
Outline: as §1

[32] = target: Neu5Ac(a2-6)Gal(b1-4)GlcNAc(b1-3)GalNAc
Outline: as §1

[33] = target: Neu5Ac(a2-6)Gal(b1-4)GlcNAc(b1-3)[Neu5Ac(a2-6)Gal(b1-4)GlcNAc(b1-6)]GalNAc
Outline: as §1

[34] = target: Neu5Ac(a2-6)Gal(b1-4)GlcNAc(b1-6)GalNAc
Outline: as §1

[35] = target: Neu5Ac(a2-6)Gal(b1-4)GlcNAc(b1-6)[Gal(b1-3)GlcNAc(b1-3)]Gal(b1-4)Glc
Outline: as §1

[36] = target: Neu5Ac(a2-6)Gal(b1-4)GlcNAc(b1-6)[Gal(b1-3)]GalNAc
Outline: as §1

[37] = target: Neu5Ac(a2-6)Gal(b1-4)GlcNAc6S
Outline: as §1

Neu5Ac(a2-6)GalNAc = target: Neu5Ac(a2-6)GalNAc
Outline: as §1

[38] = target: Neu5Ac(a2-6)GalNAc(b1-4)GlcNAc
Outline: as §1

[39] = target: Neu5Ac(a2-6)GalNAc(b1-4)GlcNAc6S
Outline: as §1

[40] = target: Neu5Ac(a2-6)GlcNAc(b1-4)GlcNAc
Outline: as §1

[41] = target: Neu5Ac(a2-6)GlcNAc(b1-4)GlcNAc(b1-4)GlcNAc
Outline: as §1

B1: RBMC1 (Vibrio cholerae) (protein)
chain: QQSQRVVTADNLMYLRSGFAIDAIGTTVNNLVGGPVQGTNGGVLRAPIALDQLQSVEVTSGLYNWGGYHIVAIKFTMKDGSSVLLGSTHYASNKKVETYTVPQGKRIKQINVWTGGWLVEGFQFVY
Which “glycan array binding signal (z-score)” value (Neu5Ac(a2-3)GalNAc) does the source give for B1 here?
Its value is -0.161.

And the “glycan array binding signal (z-score)” value [1]?
The value was -0.378.

What about the “glycan array binding signal (z-score)” value [2] of the same binder?
The value was -0.432.

And the “glycan array binding signal (z-score)” value [3]?
Its value is -0.395.

And the “glycan array binding signal (z-score)” value [4]?
Its value is -0.099.

What about the “glycan array binding signal (z-score)” value [5] of the same binder?
Its value is -0.02.

And the “glycan array binding signal (z-score)” value (Neu5Ac(a2-6)Gal)?
The value was -0.359.

And the “glycan array binding signal (z-score)” value [6]?
Its value is -0.461.

What about the “glycan array binding signal (z-score)” value (Neu5Ac(a2-6)Gal(b1-4)Glc) of the same binder?
Its value is -0.22.

What about the “glycan array binding signal (z-score)” value [7] of the same binder?
The value was -0.284.

And the “glycan array binding signal (z-score)” value [8]?
The value was -0.206.

And the “glycan array binding signal (z-score)” value [9]?
The value was -0.288.

And the “glycan array binding signal (z-score)” value [10]?
The value was -0.28.

And the “glycan array binding signal (z-score)” value [11]?
Its value is -0.092.

And the “glycan array binding signal (z-score)” value [12]?
Its value is 10.4.

And the “glycan array binding signal (z-score)” value [13]?
The value was 2.28.

And the “glycan array binding signal (z-score)” value [14]?
The value was 4.94.

What about the “glycan array binding signal (z-score)” value [15] of the same binder?
The value was 11.9.

What about the “glycan array binding signal (z-score)” value [16] of the same binder?
Its value is 0.115.

And the “glycan array binding signal (z-score)” value [17]?
The value was 3.13.

What about the “glycan array binding signal (z-score)” value [18] of the same binder?
Its value is 1.84.

What about the “glycan array binding signal (z-score)” value [19] of the same binder?
The value was -0.031.

What about the “glycan array binding signal (z-score)” value [20] of the same binder?
The value was -0.365.

What about the “glycan array binding signal (z-score)” value [21] of the same binder?
Its value is -0.287.

And the “glycan array binding signal (z-score)” value [22]?
The value was -0.28.

And the “glycan array binding signal (z-score)” value [23]?
Its value is -0.121.

And the “glycan array binding signal (z-score)” value [24]?
Its value is -0.084.

And the “glycan array binding signal (z-score)” value [25]?
The value was 0.638.

And the “glycan array binding signal (z-score)” value [26]?
Its value is -0.349.

What about the “glycan array binding signal (z-score)” value [27] of the same binder?
The value was 1.12.

What about the “glycan array binding signal (z-score)” value [28] of the same binder?
The value was -0.164.

And the “glycan array binding signal (z-score)” value [29]?
Its value is -0.075.

And the “glycan array binding signal (z-score)” value [30]?
The value was -0.273.

And the “glycan array binding signal (z-score)” value [31]?
The value was -0.205.

And the “glycan array binding signal (z-score)” value [32]?
The value was -0.423.

And the “glycan array binding signal (z-score)” value [33]?
The value was -0.263.

And the “glycan array binding signal (z-score)” value [34]?
The value was 0.748.

And the “glycan array binding signal (z-score)” value [35]?
The value was -0.409.

And the “glycan array binding signal (z-score)” value [36]?
The value was 0.257.

And the “glycan array binding signal (z-score)” value [37]?
Its value is -0.22.

What about the “glycan array binding signal (z-score)” value (Neu5Ac(a2-6)GalNAc) of the same binder?
The value was -0.35.

What about the “glycan array binding signal (z-score)” value [38] of the same binder?
Its value is -0.426.

What about the “glycan array binding signal (z-score)” value [39] of the same binder?
The value was -0.277.

And the “glycan array binding signal (z-score)” value [40]?
The value was -0.369.

And the “glycan array binding signal (z-score)” value [41]?
Its value is -0.146.
